Data on 84 variants can be found in the RNAGym collection of RNA variant scans (doi:10.7554/elife.90254).

Read counts are not given, so values of variants with three or more changes are uncertain.

B1: OR4K15 (parent)
chain: GUUAACGGUCAUAGGCCAUGGAAACUAGGAGCACCAUUUCGCUGCCAGUGAAGAAAUGAACAAAGAAAAUCUGGGCCAGGCAGGCAUCAAAAGAAAUAGUCUUGCGCUCAACCAGAAAGUCUGUAAUCAUUUUAAGGGUA

The variants in this series derive from B1. The experiment in a line: self-cleavage, relative activity (ratio to wild type); higher = more cleavage; in vitro, sequencing; the parent is a self-cleaving ribozyme.
Turning to G14A A18U A62G U130C, the self-cleavage came to 0.54.
Take G15A A56G U72A A110G: the self-cleavage came out at 0.02.
On to C16U A52G U70C U102A, for which the self-cleavage worked out at 0.79.
Take G15A U37A U122A: the self-cleavage came out at 1.05.
In the case of A13U A66G A90G, the self-cleavage came to 1.04.
The result for G14A G28A A56G G84C U87C reads 0.15.
As to G15C C35U A60G A118G U132A, the self-cleavage was determined as 0.47.
Turning to A13U A111G U127A, the self-cleavage is 0.03.
Regarding A13U U37C C88U, the self-cleavage amounted to 0.76.
In the case of G15U A22G A59G U100C A110G A129U, the self-cleavage came out at 0.15.
The same measure for A13G U38G U49A U122C: 0.36.
Turning to C16A U87A A94G A129G, the self-cleavage was determined as 1.04.
For C16U A23G A60G A118G U131C, the self-cleavage came to 0.4.
The result for G14A U39A A51G reads 1.04; that for A13G U38C U43C A64G, 1.62; that for C16G A51G A66G A116U U131C, 0.07.
As for C16U A30G U108C, the self-cleavage was determined as 0.05.
G15A U26C U43C: the self-cleavage was found to be 1.16.
Regarding G15A G48A U102A A135G G136A, the self-cleavage was 0.66.
Regarding G15A A30G U39C C81U C88U A118U, the self-cleavage turned out to be 0.26.
Take G14U A27G A60G: the self-cleavage stood at 1.31.
G15A A22G G80A C112U: the self-cleavage was found to be 0.01.
In the case of A13U A52U A69G, the self-cleavage is 1.26.
The result for A13U A60G A64G A95G U127A reads 1.69; that for C16A G31A A55G A129G, 1.94; that for A13G U100C U133C, 2.32.
The result for A13U A22G A36G A69G A126G U130A reads 0.3; that for G14A A66G U72C, 0.19; that for G14U G20U A56G, 1.6.
Consider A13G U102G A110G U120C G123A, for which the self-cleavage is 0.
In the case of G15C A18G U102G, the self-cleavage was 0.84.
G15A A51G A54C G80A U108C U122C U124A: the self-cleavage was determined as 0.
The result for A13U U39C U120C reads 0.84; that for C16U A59C U103C, 0.6; that for A13U A68G A69G, 0.52.
As for G15U A22G A67G A91G, the self-cleavage worked out at 0.3.
As to A13U G31U A52G A68G, the self-cleavage is 1.09.
With G14U A60U A82U U103A, the self-cleavage was 0.72.
For the variant G14A C32U A117G U120C A140G, the self-cleavage came out at 0.89.
With A13U U39C G80U A111G A129G, the self-cleavage was 0.01.
Turning to G15A A23G A24G, the self-cleavage stood at 1.7.
G15C U122C U131C U139C: the self-cleavage was 0.54.
With A13U A54G U57C A98G A110G U120C, the self-cleavage was 0.04.
Take G14A A60U A63G C88U A95G A129G A135U: the self-cleavage is 1.32.
Take G15A A118C U122C: the self-cleavage worked out at 0.49.
With A13U U57C A86G A96G U122C, the self-cleavage is 0.42.
As for G14A U102C U132A A135U, the self-cleavage came out at 2.37.
Consider A13U A22U U70A, for which the self-cleavage amounted to 0.56.
Consider A13G U39C U57A A118G, for which the self-cleavage is 1.18.
In the case of C16U A66G A68G, the self-cleavage turned out to be 1.26.
Turning to A13U U49C A126G, the self-cleavage stood at 1.24.
For the variant A13G U38C U49A A82U A86G A126G G137A, the self-cleavage came out at 0.13.
Turning to A13U U57C A64G U103C U108C, the self-cleavage was 0.02.
Consider G15A A62G A91C A94U C128A, for which the self-cleavage is 0.7.
On to G14U A22G A51U, for which the self-cleavage was found to be 1.13.
On to G14U A22U A52G, for which the self-cleavage amounted to 2.47.
On to G15U A63G A66G, for which the self-cleavage was found to be 1.5.
For C16U A18G A55G, the self-cleavage was found to be 0.69.
The same measure for C16A A52G A63G A111G: 0.1; for C16U A47G A125G: 0.8.
The same measure for C16U A22G A66G: 1.95; for G15A G58A A60U: 1.24.
As for A13U A36G A135U, the self-cleavage worked out at 2.35.
For the variant G15U A18G U39C A111G U131C, the self-cleavage is 0.
Regarding C16G A62G A126G, the self-cleavage was determined as 0.57.
Turning to A13G U39C U57A A67G A86G A126G, the self-cleavage worked out at 0.91.
With G14A A30U A52G A96G A98G, the self-cleavage worked out at 0.12.
Take G15A A94G G119A: the self-cleavage was found to be 1.29.
Turning to G15A A52G A67G A135G, the self-cleavage came to 0.56.
G14U A23U U37C A56G: the self-cleavage stood at 0.56.
The same measure for C16U U39A U108C A134G: 0.03.
For A13U U19C A47G A116U, the self-cleavage was 1.42.
As for A13U U38C A60G, the self-cleavage was determined as 2.01.
With C16A A51G A82U, the self-cleavage came out at 0.29.
G15A A27U U43C U87C: the self-cleavage was 0.53.
In the case of A13U A23G U37C A52G A116G, the self-cleavage turned out to be 0.23.
As to A13U A24C A89G, the self-cleavage is 0.84.
As for A13G U49A A118U, the self-cleavage turned out to be 0.53.
G14A A116G A140G: the self-cleavage came to 0.45.
The same measure for A13G U39A A95G: 0.87.
In the case of A13U U102A U108C, the self-cleavage is 0.02.
For G14C U38C A90G U100C A118G, the self-cleavage is 1.92.
Take G15A A36G A67G U102A: the self-cleavage amounted to 0.85.
G14A A91G U124C U127C: the self-cleavage was found to be 0.32.
